# Hit rate of the full screen: of about 410,000 compounds, about 6,400 (1.6%) were called active. Inconclusive means that the source gave no clear call. Such entries were picked first, then a sample of the others. Calls come from the whole dose curve; as a rule, active = well fitted inhibition curve with a large enough effect; inconclusive = small, poorly fitted or top-dose-only effect; inactive = no such curve, though single readings can be large or run the other way. Potencies of inconclusive entries are left out as doubtful fits.
# Target: Glucagon-like peptide 1 receptor (Homo sapiens) (UniProt P43220)
# Assay: qHTS of GLP-1 Receptor Inverse Agonists (Inhibition Mode); note: nearly all actives have a fitted effect of over 55% in size
# Details: HEK293 GLP-1R CRE-luciferase, luminescence, 24 h, GLP-1R form is constitutively active; activity change, negative = inhibition: at 38.3 µM (top of the series) unless noted
# Summary of the method: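 Cells are plated, allowed 12 hours at 37 deg C, then treated with compounds for 24 hr before luciferase detection reagent is added and luminescence is read after 12 min at room temperature. The HEK293 line carries constitutively active GLP-1R with a cAMP-responsive reporter.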
# % is set by controls: 0 for no effect and ±100 for the full control effect; potency is the fitted concentration of half-maximal effect; tags give direction and shape of the fitted curve.
# Sequence of UniProt P43220 (P43220 whole entry, looked up): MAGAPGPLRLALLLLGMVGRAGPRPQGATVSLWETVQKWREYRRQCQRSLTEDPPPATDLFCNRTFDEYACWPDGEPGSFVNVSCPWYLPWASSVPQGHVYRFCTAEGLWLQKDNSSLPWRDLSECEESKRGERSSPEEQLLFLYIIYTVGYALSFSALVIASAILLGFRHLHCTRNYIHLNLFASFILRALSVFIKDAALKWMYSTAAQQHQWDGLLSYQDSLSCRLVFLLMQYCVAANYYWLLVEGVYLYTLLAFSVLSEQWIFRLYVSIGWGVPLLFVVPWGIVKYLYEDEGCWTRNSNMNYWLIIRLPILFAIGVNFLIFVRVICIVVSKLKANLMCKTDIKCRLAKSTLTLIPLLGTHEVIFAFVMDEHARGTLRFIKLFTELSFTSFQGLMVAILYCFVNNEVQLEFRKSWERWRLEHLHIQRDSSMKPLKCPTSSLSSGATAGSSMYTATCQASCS
SMILES,Potency,"activity change, negative = inhibition"
CC(C)c1ccc(C(CC(=O)c2ccc(Cl)cc2)C(=O)O)cc1 (stereo not given),"inconclusive [inhibitor, single point]",–
Cc1ccc(-c2nc(CS(=O)CC(=O)NCCN3CCCCCC3)c(C)o2)cc1 (stereo not given),"inconclusive [inhibitor, single point]",–
Cc1ccc(-c2cc(C(=O)NCc3ccccn3)no2)cc1,–,inactive: -0.453%
O=C(Nc1ccccc1O)N1c2ccccc2Sc2ccccc21,"inconclusive [inhibitor, single point]",–
O=C(Nc1ccccn1)c1ccc2c(=O)n3c(nc2c1)CCCCC3,"inconclusive [inhibitor, single point]",–
O=C(Nc1cccc(S(=O)(=O)N2CCCCC2)c1)c1cccs1,"inconclusive [inhibitor, single point]",–
CCC(Oc1ccccc1F)C(=O)Nc1cc(-c2ccccc2)no1 (stereo not given),"inconclusive [inhibitor, single point]",–
Cc1noc(C)c1S(=O)(=O)N(C)C[C@H]1Oc2c(NC(=O)Nc3ccc(C(F)(F)F)cc3)cccc2C(=O)N([C@H](C)CO)C[C@@H]1C,"inconclusive [inhibitor, single point]",–
CC(C)CCNC(=O)c1c(CSc2ccc(Cl)cc2)noc1C(=O)NCc1ccccc1,"inconclusive [inhibitor, single point]",–
Cc1[nH]c2ccccc2c1C1(O)C(=O)N(Cc2ccc3c(c2)OCO3)c2ccccc21 (stereo not given),"inconclusive [inhibitor, single point]",–
COc1ccc(C(=O)NCCn2cc(SCC(=O)Nc3ccc4c(c3)OCCO4)c3ccccc32)cc1,"inconclusive [inhibitor, single point]",–
Cc1cccc(N2CCN(S(=O)(=O)c3cc(C(=O)Nc4ccc(Oc5ccccc5)cc4)ccc3F)CC2C)c1 (stereo not given),"inconclusive [inhibitor, full curve, poor fit]",–
C/C(=N\NC(=O)COc1ccc(C(C)(C)C)cc1)c1ccc(OC(F)F)cc1,"inconclusive [inhibitor, single point]",–
COc1cc(F)ccc1S(=O)(=O)N1CCN(C23CC4CC(CC(C4)C2)C3)CC1,"inconclusive [inhibitor, partial curve]",–
C=C1C(=O)OCC2C(C(=O)O)=CC3C(C)C(C)=CC123 (stereo not given),"inconclusive [inhibitor, single point]",–
COc1cc(OC)cc(-c2c(-c3cccs3)c3cc(-c4ccc(CN5CCOCC5)cc4)ccc3n2C)c1,"inconclusive [inhibitor, full curve, poor fit]",–
CC(NCC(=O)Nc1ccccc1C(=O)NC1CC1)c1cccc(C(F)(F)F)c1 (stereo not given),active: 12.6 µM,–
CC1(C(=O)Nc2cccc(C(F)(F)F)c2)Cc2c(-c3cccc(C(N)=O)c3)ccnc2O1 (stereo not given),–,inactive: -10%
COC(=O)C1=C(C)OC(N)=C(C#N)C1c1ccccc1F (stereo not given),–,inactive: -1.57%
Cc1ccc(-c2cc(C(=O)N3CCOCC3)c3cc(C)ccc3n2)cc1,"inconclusive [inhibitor, single point]",–
COC(=O)c1ccc(NC(=O)c2c(NCc3cccc(F)c3)sc3c2CCCC3)cc1,"inconclusive [inhibitor, partial curve, poor fit]",–
CCCOc1ccc(C(=O)Nc2cc(S(=O)(=O)N3CCOCC3)ccc2N2CCOCC2)cc1,–,inactive: 0.239%

SMILES,Potency,"activity change, negative = inhibition"
COC(=O)C1=C(CS(=O)(=O)c2ccc(C)cc2C)NC(=O)NC1c1ccc(C)cc1 (stereo not given),"inconclusive [inhibitor, single point]",–
Cc1cc(Br)ccc1SCC(=O)NCC(c1ccco1)N1CCCCC1 (stereo not given),"inconclusive [inhibitor, partial curve, poor fit]",–
COc1ccc2c(C)c(CCC(=O)NCCc3ccccc3)c(=O)oc2c1,–,inactive: -15.8%
Clc1cccc(CN2CCN(Cc3nc(CCc4ccccc4)no3)CC2)c1,"inconclusive [inhibitor, partial curve, poor fit]",–
CCO[C@@H]1OC(C(=O)NCc2ccccc2)=C[C@H](C2CCCCC2)[C@H]1CCCO,"inconclusive [inhibitor, partial curve, poor fit]",–
CCOC(=O)C1(Cc2ccccc2)CCCN(C(=O)COc2ccccc2OC)C1 (stereo not given),"inconclusive [inhibitor, single point]",–
Cc1cc(OCCN2CCCCCC2)ccc1[N+](=O)[O-],"inconclusive [inhibitor, single point]",–
OC(CN1C2=NCCN2c2ccccc21)c1ccc2c(c1)OCO2 (stereo not given),"inconclusive [inhibitor, single point]",–
CC(/C=C/c1ccc(N(C)C)cc1)=N/N=C1/NC(=O)CC(C(=O)Nc2ccc(Cl)cc2)S1 (stereo not given),"inconclusive [inhibitor, single point]",–
CCCCSCCCNC(=O)c1ccc(CS(=O)(=O)c2ccc(OC)cc2)o1,"inconclusive [inhibitor, single point]",–
CCOc1ccc(Cl)cc1CNCCNCCO,–,inactive: 3.76%
O=C(Cc1ccccc1)Nc1ccccc1N1CCCC1,"inconclusive [inhibitor, partial curve, poor fit]",–
CCOC(=O)c1oc2cc(C)cc(C)c2c1C,–,inactive: -1.84%
CC(Oc1ccc(Br)cc1)C(=O)NCC(c1ccco1)N1CCCCC1 (stereo not given),"inconclusive [inhibitor, single point]",–
C=CCn1c(-c2cccn(Cc3ccc(Cl)cc3Cl)c2=O)n[nH]c1=S,–,inactive: 0%
Cc1csc2nc(CNS(=O)(=O)c3ccc(-c4ccccc4)cc3)cn12,–,inactive: -12.3%
Cc1nn(-c2ccccc2)c2sc(C(=O)Nc3ccc(Cl)cc3Cl)cc12,–,inactive: 3.47%
CCCCN(C)CCNC(=O)c1nn(-c2ccc(OC)c(Cl)c2)c(=O)c2c1c1ccccc1n2C,–,inactive: 0.869%
NC(=O)CSc1cn(Cc2cccc(F)c2)c2ccccc12,"inconclusive [inhibitor, single point]",–
COCc1ccc(C(=O)N2CCc3c([nH]c4ccccc34)C2c2ccccn2)s1 (stereo not given),"inconclusive [inhibitor, single point]",–
O=C(Nc1cccc(Cl)c1)c1nc[nH]c1C(=O)Nc1ccccc1F,–,inactive: 24.5%
CC(C)CN1CCC(=O)N([C@H](CSc2ccccc2)Cc2ccccc2)CC1,"inconclusive [inhibitor, single point]",–

SMILES,Potency,"activity change, negative = inhibition"
O=C(NCCSc1ccccc1)c1ccc(Br)cc1,"inconclusive [inhibitor, single point]",–
COc1cc(CC(=O)OCC(=O)c2ccc3c(c2)OCCO3)cc(OC)c1OC,"inconclusive [inhibitor, full curve]",–
CCn1cc([N+](=O)[O-])c(C(=O)N2N=C(c3ccc(Cl)c(Cl)c3)CC2c2ccccc2O)n1 (stereo not given),"inconclusive [inhibitor, single point]",–
Cc1ccc(-n2ncc3c(Nc4ccc(Oc5ccccc5)cc4)ncnc32)c(C)c1,active: 10 µM,–
Cc1[nH]c2ccccc2c1/C=C/c1nc2ccccc2c(=O)[nH]1,"inconclusive [inhibitor, single point]",–
CC(C)n1ncc2c(C(=O)NCc3ccccc3CN(C)C)cc(C3CC3)nc21,"inconclusive [inhibitor, single point]",–
Cc1c(Br)c(C(=O)NCc2cc3cc(Cl)ccc3[nH]2)nn1C,"inconclusive [inhibitor, single point]",–
Cc1ccc(OCC(=O)Nc2nnc(S(=O)(=O)N3CCc4ccccc43)s2)cc1,–,inactive: -25.4%
Cc1cc(Cl)c(OCCOCCN2CCN(C)CC2)c(Br)c1,"inconclusive [inhibitor, partial curve, poor fit]",–
CC(C)NCC(O)c1ccc(O)c(O)c1 (stereo not given),–,inactive: 37.1%
COc1ccc(-c2csc(N)n2)cc1F,–,inactive: 44.1%
COc1ccc(N2CCC(CNS(=O)(=O)c3cccc(C(F)(F)F)c3)C2)cc1 (stereo not given),"inconclusive [inhibitor, single point]",–
CCOC(=O)N1CCN(C(=O)CCS(=O)(=O)c2ccc3c(c2)CCN3C(=O)CC)CC1,–,inactive: 9.07%
Cc1cnc(CN2CCCC(C(=O)c3ccc4c5c(cccc35)CC4)C2)[nH]1 (stereo not given),"inconclusive [inhibitor, single point]",–
O=C(N/N=C\c1c(O)ccc2ccccc12)c1ccc(S(=O)(=O)N2CCCCC2)cc1,"inconclusive [inhibitor, partial curve, poor fit]",–
Cc1onc(-c2c(F)cccc2Cl)c1-c1nnc(-c2ccc(C(F)(F)F)cc2)o1,"inconclusive [inhibitor, partial curve, poor fit]",–
COc1cc(/C=N/N=C(/N)c2nonc2N)cc(Br)c1OCc1cccc(C)c1,"inconclusive [inhibitor, partial curve, poor fit]",–
CC(C(=O)OCC(=O)c1ccc(Br)cc1)N1C(=O)C2C3C=CC(C3)C2C1=O (stereo not given),–,inactive: -23%
COc1ccc(Cl)cc1NC(=O)CSc1nc(=O)n(Cc2ccco2)c2c1CCC2,"inconclusive [inhibitor, single point]",–
Cc1cccc(OC(C)C(=O)Nc2ccc(N3CCCCC3)cc2)c1 (stereo not given),"inconclusive [inhibitor, single point]",–
O=C(Nc1cccc(-c2csc(Nc3ccc(Cl)cc3)n2)c1)c1cccc(C(F)(F)F)c1,"inconclusive [inhibitor, full curve, poor fit]",–

# Reference: PubChem BioAssay AID624417 (National Center for Advancing Translational Sciences (NCATS), 2012)
